Experimental data reported in the RNAGym collection of RNA variant scans (doi:10.7554/elife.90254).
Read counts are not given, so values of variants with three or more changes are uncertain.

B1: OR4K15 (parent)
chain: GUUAACGGUCAUAGGCCAUGGAAACUAGGAGCACCAUUUCGCUGCCAGUGAAGAAAUGAACAAAGAAAAUCUGGGCCAGGCAGGCAUCAAAAGAAAUAGUCUUGCGCUCAACCAGAAAGUCUGUAAUCAUUUUAAGGGUA

Variants of: B1
Experiment: self-cleavage, relative activity (ratio to wild type); higher = more cleavage; in vitro, sequencing; the parent is a self-cleaving ribozyme

Row | Variant | self-cleavage
1 | GUUAACGGUCAUAGGCCAUGGAAACUAGGAGCACCACUUCGCUGCCAGUGGGGAAAUGAGCAAAGAAAAUCUGGGCCAGGCAGGCAUCAAAAGAAAUAGUCUUGCGCUCAACCAGAAAGUCUGUAAUCAUUUUAAGGGUA [U37C A51G A52G A60G] | 1.73
2 | GUUAACGGUCAUAGGCCAUGGAAACUAGGAGCACCACUUCGCUGCCGGUGAAGAAAUGAACAAAGAAAAUCUGGGCCAGGCAGGCAUCAAAAGAAAUAGUCUUGCGCUCAACCAGAAAGCCUGUAAUCAUUUUAAGGGUA [U37C A47G U120C] | 1.13
3 | GUUAACGGUCAUAGGCCAUGGAAACUAGGAGCACCACUUCGCUGCCGGUGAAGAAAUGAACGAAGAAAAUCUGGGCCAGGCAGGCAUCAAAAGAAAUAGUCUUGCGCUCAACCAGAAAGUCUGUAAUCAUUUUAAGGGUA [U37C A47G A62G] | 0.75
4 | GUUAACGGUCAUAGGCCAUGGAAACUAGGAGCACCACUUCGCUGCCAGUGGAGAAAUGGACAAAGAAAAUCUGGGCCAGGCAGGCAUCAAAAGAAAUAGUCAUGCGCUCAACCAGAAAGUCUGUAAUCAUUUUAAGGGUA [U37C A51G A59G U102A] | 1.54
5 | GUUAACGGUCAUAGGCCAUGGAAACUAGGAGCACCACUUCGCUGCCAGUGUAGAAAUGAACAAAGGAAAUCUGGGCCAGGCAGGCAUCAAAAGAAAUAGUCUUGCGCUCAACCAGAAAGUCUGUAAUCAUCUUAAGGGUA [U37C A51U A66G U131C] | 0.93
6 | GUUAACGGUCAUAGGCCAUGGAAACUAGGAGCACCACUUCGCUGCCUGUGAAGAAAUGAACAAAGAAAAUCUGGGCCAGGCAGGCAUCAGAAGAGAUAGUCUUGCGCUCAACCAGAAAGUCUGUAAUCAUUUUAAGGGUA [U37C A47U A90G A95G] | 0.28
7 | GUUAACGGUCAUAGGCCAUGGAAACUAGGAGCACCACUUCGCUGCCGGUGAAGAAACGAACAAAGAAAAUCUGGGCCAGGCAGGCAUCAAAAGAAAUAGUCUUGCGCUCAACCAGAAAGUCUGUAAUCAUUUUAAGGGUA [U37C A47G U57C] | 0.48
8 | GUUAACGGUCAUAGGCCAUGGAAACUAGGAGCACCACUUCGCUGCCAGUGUAGAAAUGAACAAAGAAAAUCUGGGCCAGGCAGGCAUCAAAAGAAAUAGUCUUGCGCUCAACCAGAGAGUCUGUAAUCAUUUUAAGGGUA [U37C A51U A117G] | 2.67
9 | GUUAACGGUCAUAGGCCAUGGAAACUAGGAGCACCACUUCGCUGCCGGUGAAGAAAUGAACAAAGAAAAUCUGGGCCAGGCAGGCAUCAAAAGAAAUAGUCUUGCGCCCAACCAGAAAGUCUGUAAUCAUUUUAAGGGUA [U37C A47G U108C] | 0
10 | GUUAACGGUCAUAGGCCAUGGAAACUAGGAGCACCAAUUCGCUGCCAGUGAAGAAAUGAACAAAGAAAAUCCGGGCCAGGCAGGCAUCAAAAGAAAUAGUCUUGCGCUCAACCAGAAAGUCGGUAAUCAUUCUAAGGGUA [U37A U72C U122G U132C] | 0.33
11 | GUUAACGGUCAUAGGCCAUGGAAACUAGGAGCACCACUUCGCUGCCCGUGAAGAAAUGAACAAAGAAAAUCUGGGCCAGGCAGGCAUCAAAAGAAAUAGUCUUGCGCUCAACCAGAAAGUCUGUAAUCAUUUUAGGGGUA [U37C A47C A135G] | 0.96
12 | GUUAACGGUCAUAGGCCAUGGAAACUAGGAGCACCACUUCGCUGCCUGUGAAGAAAUGAACAGAGAAAAUCUGGGCCAGGCAGGCAUCAAAAGAAAUAGUCUUGCGCUCAACCAGAAAGUCUGUAAUCAUUUUAAGGGUA [U37C A47U A63G] | 0.93
13 | GUUAACGGUCAUAGGCCAUGGAAACUAGGAGCACCACUUCGCUGCCUGUGAAGAAAUGAACAAAGAAAAUCUGGGCCAGGCAGGCAUCAAAAGAAAUAGUCUUGCGCUCAUCCAGAAAGUCUGUAACCAUUUUAAGGGUA [U37C A47U A111U U127C] | 0.01
14 | GUUAACGGUCAUAGGCCAUGGAAACUAGGAGCACCACUUCGCUGCCAGUGUAGAAAUGAACAAAGAAAAUCUGGGCCAGGCAGGCAUCAAAAGAAAUAGUCUUGCGCUCAACCAGAAAGUCUGUAAUCAUUUUUAGGGUA [U37C A51U A134U] | 1.39
15 | GUUAACGGUCAUAGGCCAUGGAAACUAGGAGCACCACUUCGCUGCCAGUGCAGAAAUGAACAAAGGAAAUCUGGGCCAGGCAGGCACCAAAAGAAAUAGUCUUGCGCUCAACCAGAAAGUCUGUAAUCAUUUUAAGGGUA [U37C A51C A66G U87C] | 1.14
16 | GUUAACGGUCAUAGGCCAUGGAAACUAGGAGCACCACUUCGCUGCCUGUGAAGAAAUGGACAAAGAAAAUCUGGGCCAGGCAGGCAUCAAAAGAAAUAGUCUUGCGCUCAACCAGGUAGUCUGUAAUCAUCUUAAGGGUA [U37C A47U A59G A116G A117U U131C] | 0.03
17 | GUUAACGGUCAUAGGCCAUGGAAACUAGGAGCACCACUUCGCUGCCGGUGAAGAAAUGAACAAAGAAAAUCUGGGCCAGGCAGGCAUCAAAAGAAAUAGUCUUGCGCUCAACCAGAAAGUCUGUAAUCAUUUUAAGGGUG [U37C A47G A140G] | 1.3
18 | GUUAACGGUCAUAGGCCAUGGAAACUAGGAGCACCACUUCGCUGCCAGUGGAGAAAUGAACAAAGAAAAUCUGGGCCAGGCAGGCAUCAAAAGAAAUAGUCUUGCGCUCAACCAGAAGGUCUGUAAACAUUUUAAGGGUA [U37C A51G A118G U127A] | 0.82
19 | GUUAACGGUCAUAGGCCAUGGAAACUAGGAGCACCAACUCGCUGCCAGUGAAGAAAAGAACAAGGAAAAUCUGGGCCAGGCAGGCAUCAAAAGAAAUAGUCUUGCGCUCAACCAGAAAGUCUGUAAUCAUUUUAAGGGUA [U37A U38C U57A A64G] | 1.51
20 | GUUAACGGUCAUAGGCCAUGGAAACUAGGAGCACCACUUCGCUGCCAGUGGAGAAAUGAACAAAGAAAAUCUGGGCCAGGCAGGCAUCAAGAGAAAUAGUCUUGCGCUCAACCAGAAAGUCUGUAAUCAUCUUAAGGGUA [U37C A51G A91G U131C] | 0.56
21 | GUUAACGGUCAUAGGCCAUGGAAACUAGGAGCACCACUUCGCUGCCAGUGUAGAAAUGAACAAAGAAAAUCAGGGCCAGGCAGGCAUCAAAAGAAAUAGUCUUGCGCUCAACCAGAAAGUCUGUAAUCAUUUUAAGGGUG [U37C A51U U72A A140G] | 0.19
